# From patent US20220135678A1, “METHODS AND COMPOSITIONS TO IMPROVE THE SAFETY AND EFFICACY OF CELLULAR THERAPIES” (University of Southern California, priority 2019, published 2022)
# System: CD33 on hematopoietic stem cells and progenitor cells
# Test: HSPC expressing AMR-dTAG or AMR-ShieldTag targeting CD33, in vitro
# Assay type: cell-based
# Conditions: ShieldTag: in the presence of Shield-1
row,Molecule,Expression of CD33 in the transduced hematopoietic stem cells and progenitor cells
1,"AMR-dTAG fusion protein targeting CD33: AMR-dTAG fusion protein targeting CD33, lentiviral expression in hematopoietic stem and progenitor cells (protein) MALPVTALLLPLALLLHAARPDEIVLTQSPGSLAVSPGERVTMSCKSSQSVFFSSSQKNYLAWYQQIPGQSPRLLIYWASTRESGVPDRFTGSGSGTDFTLTISSVQPEDLAIYYCHQYLSSRTFGQGTKLEIKRGGGGSGGGGSGGGGSQVQLQQPGAEVVKPGASVKMSCKASGYTFTSYYIHWIKQTPGQGLEWVGVIYPGNDDISYNQKFQGKATLTADKSSTTAYMQLSSLTSEDSAVYYCAREVRLRYFDVWGQGTTVTVSSTRIEVMYPPPYLDNEKSNGTIIHVKGKHLCPSPLFPGPSKPFWVLVVVGGVLACYSLLVTVAFIIFWVRSKRSG[about 100 residues cut from this listing]",masked
2,"AMR-ShieldTag fusion protein targeting CD33: AMR-ShieldTag fusion protein targeting CD33, lentiviral expression in hematopoietic stem and progenitor cells (protein) MALPVTALLLPLALLLHAARPDEIVLTQSPGSLAVSPGERVTMSCKSSQSVFFSSSQKNYLAWYQQIPGQSPRLLIYWASTRESGVPDRFTGSGSGTDFTLTISSVQPEDLAIYYCHQYLSSRTFGQGTKLEIKRGGGGSGGGGSGGGGSQVQLQQPGAEVVKPGASVKMSCKASGYTFTSYYIHWIKQTPGQGLEWVGVIYPGNDDISYNQKFQGKATLTADKSSTTAYMQLSSLTSEDSAVYYCAREVRLRYFDVWGQGTTVTVSSTRIEVMYPPPYLDNEKSNGTIIHVKGKHLCPSPLFPGPSKPFWVLVVVGGVLACYSLLVTVAFIIFWVRSKRSGG[about 100 residues cut from this listing]",masked
